Experimental data reported in PubChem BioAssay AID686970 (National Center for Advancing Translational Sciences (NCATS), 2013).
About 6,000 (1.7%) of roughly 360,000 compounds were called active. This list was built around the results that the source calls inconclusive (neither active nor inactive); the mix of calls is not that of the screen. Calls come from the whole dose curve; as a rule, active = well fitted cell-killing curve with a large enough effect; inconclusive = small, poorly fitted or top-dose-only effect, or effect the other way; inactive = flat fitted curve, though single readings scatter. Potencies of inconclusive entries are left out as doubtful fits.

test: qHTS for induction of synthetic lethality in tumor cells producing 2HG: qHTS for the HT-1080-NT fibrosarcoma cell line; details: HT-1080-NT fibrosarcoma viability, CellTiter-Glo ATP luminescence, 48 h; activity, negative = less viability: at 46.1 µM (top of the series) unless noted;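 note: NT is the 2HG producing partner of a matched IDH1 knockdown line; nearly all actives have a fitted effect of over 55% in size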;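 for activity, negative = less viability: 0% = DMSO-treated cells and -100% = media-only wells without cells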
Outline: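 HT-1080-NT; 750 cells/well; 5% FBS RPMI; 48 h compound, 37 degrees C; CellTiter-Glo luminescence; curve fitting and curve-class assignment.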
Potency is the fitted concentration of half-maximal effect; tags give direction and shape of the fitted curve.

| SMILES | Potency | activity, negative = less viability |
| --- | --- | --- |
| O=C1CC(SC2=NCCS2)C(=O)N1c1ccc(Br)cc1 (stereo not drawn) | inconclusive [rising, full curve, poor fit] | – |
| COc1cc([N+](=O)[O-])cc(/C=N/NC(=O)c2cc(C)nc3ccccc23)c1O | inconclusive [cytotoxic, partial curve] | – |
| CC(C)c1ccc(S(=O)(=O)N2CCN(C(=O)Cc3ccsc3)CC2)cc1 | – | inactive: -2.58% |
| CC(C)c1ccc(/C=C/C(=O)Nc2ccc(CN3CCOCC3)cc2)cc1 | inconclusive [cytotoxic, single point] | – |
| CCOC(=O)Cc1csc(NC(=O)C(NC(=O)C2CCCCC2)C(C)C)n1 (stereo not drawn) | inconclusive [rising, single point] | – |
| COCc1cc(CN2CCCC(C(=O)Nc3ccc(-c4ccco4)cc3)C2)ccc1OC (stereo not drawn) | inconclusive [cytotoxic, single point] | – |
| COCCN1CCCC(CNCc2cn(C)nc2-c2ccc(Oc3ccccc3)cc2)C1 (stereo not drawn) | inconclusive [cytotoxic, single point] | – |
| CS(=O)(=O)N(CC(=O)N1CCCC1)C1CCCCC1 | – | inactive: 3.48% |
| CC(=O)NC(=S)NNC(=O)COc1ccc(Br)cc1 | – | inconclusive: 1.24% [cytotoxic] |
| COc1ccc2nc(SCC(=O)NC3CCCC3)c(C)cc2c1 | inconclusive [cytotoxic, full curve] | – |
| CCCCc1ccc(NC(=S)NCCc2ccc(F)cc2)cc1 | inconclusive [cytotoxic, single point] | – |
| O=[N+]([O-])c1ccc(-c2cn3ccccc3n2)cc1 | – | inactive: -1.84% |
| Cc1cc(=O)oc(C)c1C(=O)OC(C(=O)c1ccccc1)c1ccccc1 (stereo not drawn) | – | inactive: -2.62% |
| Cc1ccc(-c2nn(-c3ccccc3)cc2C=C2SC(=S)N(CCS(=O)(=O)O)C2=O)cc1 | inconclusive [cytotoxic, single point] | – |
| CCOc1ccc(NC(=O)CSc2nnc(C3CC3)n2C)cc1 | inconclusive [rising, single point] | – |
| CCCCSc1cnn(-c2ccccc2)c(=O)c1SCCCC | – | inconclusive: -36.9% [cytotoxic] |
| Cc1cc(C(=O)N/N=C/c2ccc(OC(=O)c3ccccc3Br)cc2)n[nH]1 | – | inactive: -17.5% |
| O=C(c1cccc(S(=O)(=O)N2CCc3ccccc32)c1)N1CCN(c2ccccc2)CC1 | active: 13 µM | – |
| CCCCc1c(Cc2cccc(F)c2)ncn1CCc1ccccc1OC | active: 16.4 µM | – |
| O=C(N/N=C/c1ccccn1)c1ccc(N/N=C/c2ccccn2)cc1 | – | inactive: 4.33% |
| Cc1cc(Nc2ccccc2)nc(NCc2ccccc2)n1 | inconclusive [cytotoxic, single point] | – |
| CC(NC(=O)CCl)c1ccc(Cl)c(Cl)c1 (stereo not drawn) | inconclusive [cytotoxic, partial curve] | – |
| O=C(c1cc2cc(Cl)ccc2[nH]1)N1CCN(C(=O)c2ccco2)CC1 | – | inactive: -0.365% |
| CC(=O)N(c1cccc(C(F)(F)F)c1)c1nc(/C=C/C(=O)O)cs1 | – | inactive: 3.61% |
| Cc1nnnn1/C(=C\c1ccccc1)C(=O)OCC(=O)Nc1ccc(Cl)cc1F | inconclusive [cytotoxic, single point] | – |

| SMILES | Potency | activity, negative = less viability |
| --- | --- | --- |
| CCSc1nnc2c(n1)[nH]c1c(C)cccc12 | inconclusive [cytotoxic, single point] | – |
| FC(F)(F)c1cc(Cc2nc3ccccc3n2C(CCc2ccccc2)c2nc3ccccc3[nH]2)cc(C(F)(F)F)c1 (stereo not drawn) | active: 20.6 µM | – |
| CCC(C)[C@H](NC(=O)N1CCN(C)CC1)C(=O)OC (stereo partly drawn) | – | inactive: 12.1% |
| COc1ccccc1NC(=O)CN1CCN(C2c3ccccc3-c3ccccc32)CC1 | inconclusive [cytotoxic, single point] | – |
| O=C(N[C@@H](Cc1ccccc1)C(=O)CCl)OCc1ccccc1 | active: 6.51 µM | – |
| CCOC(CNC(=O)c1cccn2c(=O)c3c(C)c(C)sc3nc12)OCC | – | inactive: 15.9% |
| O=C(CN1CCOCC1)N/N=C/c1ccco1 | – | inactive: 16.8% |
| Cc1ccc(S(=O)(=O)CCSc2nc(C)cc(C(F)(F)F)c2C#N)cc1 | inconclusive [cytotoxic, single point] | – |
| CCOC(=O)c1c(C)[nH]c(C(=O)COC(=O)[C@H](C)N2C(=O)C3CCCCC3C2=O)c1C (stereo partly drawn) | – | inactive: -6.05% |
| CCOc1cc(NC(=S)Nc2cccc(OC)c2)c(OCC)cc1NC(=O)c1ccc(C)cc1 | inconclusive [cytotoxic, single point] | – |
| NS(=O)(=O)c1ccc(N/N=C/C=C/c2ccccc2[N+](=O)[O-])cc1 | – | inactive: -9.5% |
| c1ccc2c(c1)C1=NCCN1c1ccccc1-2 | inconclusive [cytotoxic, partial curve] | – |
| C=C(C)COc1ccc(-c2nc(N)ncc2-c2ccc(OC)c(OC)c2)c(O)c1 | – | inactive: -32.2% |
| C=C1C(=O)O[C@H]2C[C@H]1[C@@H](OC(C)=O)C/C(C)=C/CC/C(C)=C\CC[C@]2(C)O | active: 13 µM | – |
| CCN(CC(=O)NCc1cccs1)C(=O)/C=C/c1cccc(Cl)c1Cl | – | inactive: 8.88% |
| N#C/C(=C/c1ccc(-c2ccccc2[N+](=O)[O-])o1)C(=O)NCCN1CCCCC1 | inconclusive [cytotoxic, single point] | – |
| COc1cc(/C=C2\SC(=S)N(CCC(=O)Nc3ccc(O)cc3)C2=O)cc(OC)c1OC | inconclusive [cytotoxic, partial curve] | – |
| COc1cc(N/N=C/c2ccccc2O)ncn1 | inconclusive [cytotoxic, single point] | – |
| O=C(NCc1ccco1)/C(=C/c1cccc(C(F)(F)F)c1)c1nc2ccccc2[nH]1 | inconclusive [cytotoxic, single point] | – |
| Cc1sc(NC(=O)c2ccco2)c(C(c2ccccc2)N2CCC(C)CC2)c1C (stereo not drawn) | inconclusive [cytotoxic, single point] | – |
| CCOC(=O)[C@]12CCC=C1N(Cc1cccc3ccccc13)C(=O)[C@H](CC(=O)NCc1ccc(OC)c(OC)c1)C2 | inconclusive [cytotoxic, single point] | – |
| COc1cccc(-c2cn3nc4c(nc3n2)CCCC4)c1 | inconclusive [cytotoxic, partial curve] | – |
| c1ccc(-n2nnc3ccccc32)cc1 | – | inactive: 8.54% |
| CCOC(=O)C1=CCC(c2ccccc2C)N(S(=O)(=O)c2ccc(C)cc2)C1 (stereo not drawn) | inconclusive [cytotoxic, single point] | – |
| CN1CCc2c(sc(NC(=O)Cc3ccccc3)c2C(N)=O)C1 | – | inactive: -1.47% |

| SMILES | Potency | activity, negative = less viability |
| --- | --- | --- |
| CC(C)(C)S(=O)N1Cc2cc(C(=O)NCC(F)(F)F)nc(-c3cccc(-c4cccc(F)c4)c3)c2[C@@H]1CCO (stereo partly drawn) | inconclusive [cytotoxic, partial curve] | – |
| COc1cccc(N2CCN(c3ncnc4c3cnn4-c3ccc(C)cc3C)CC2)c1 | active: 23.1 µM | – |
| CSc1nsc(SCC(=O)Nc2ccccc2)n1 | inconclusive [rising, partial curve] | – |
| CS(=O)(=O)c1ccc2nc(NC(=O)CCNC(=O)c3ccccc3Cl)sc2c1 | – | inactive: 0% |
| O=C(O)CC/C(=N\Nc1ccc(S(=O)(=O)N2CCCC2)cc1[N+](=O)[O-])c1cccs1 | inconclusive [cytotoxic, single point] | – |
| Cc1nc2nc(-c3cccs3)[nH]c2cc1Br | inconclusive [cytotoxic, partial curve] | – |
| COc1ccc(-c2cn3c(C)c(C(=O)NC(C)(C)C)sc3n2)cc1 | – | inactive: 2.26% |
| CCc1ccccc1NC(=S)NC1CC2CCCC(C1)N2Cc1cccs1 (stereo not drawn) | inconclusive [cytotoxic, single point] | – |
| CCc1nc2ccc(C(=O)NCCC(C)C)cn2c1N(C)Cc1ccc(OC)cc1 | inconclusive [cytotoxic, single point] | – |
| CC(C)OC(=O)c1ccc2nc3ccccc3nc2c1 | – | inconclusive: -20.3% [cytotoxic] |
| S=C1NC(c2ccccc2)N2C(=S)NC(c3ccccc3)N12 (stereo not drawn) | – | inactive: 13.6% |
| Cn1c(=O)c2c(nc(N/N=C/c3cccs3)n2Cc2ccc(Br)cc2)n(C)c1=O | inconclusive [cytotoxic, single point] | – |
| CCCCCn1nnnc1-c1nc2cc3ccccc3cc2[nH]c1=O | inconclusive [cytotoxic, full curve] | – |
| COc1ccccc1C(=O)N/N=C(\C)c1ccc(NC(=O)Cc2ccccc2)cc1 | inconclusive [rising, partial curve] | – |
| COc1ccc(NC2CCCN(C(=O)C3=NN(C)C(=O)CC3)C2)cc1OC (stereo not drawn) | – | inactive: 8.28% |
| C[C@H](CO)N1C[C@H](C)[C@@H](CN(C)S(=O)(=O)c2cn(C)cn2)Oc2ccc(NC(=O)Cn3cnnn3)cc2C1=O | – | inactive: 15.2% |
| O=S(=O)(Nc1nc2ccccc2nc1NCC1CCCO1)c1cccc(Cl)c1 (stereo not drawn) | – | inactive: -18.1% |
| CCOC(=O)[C@]12CCC=C1N(Cc1ccc3c(c1)OCO3)C(=O)[C@H](CC(=O)NCCCCc1ccccc1)C2 | inconclusive [cytotoxic, single point] | – |
| Cc1nn(C(C)C(=O)NNC(=S)Nc2ccc(F)cc2)c(C)c1[N+](=O)[O-] (stereo not drawn) | – | inactive: 1.69% |
| COc1ccc(CCN(C)C(=O)C2CCN(Cc3ccc(C)cc3)CC2)cc1OC | – | inactive: 11.2% |
| COc1ccc2c(c1)OC[C@H]1[C@H]2N2C(=O)c3ccccc3NC(=O)[C@@]2(C)[C@H]1c1ccccc1 | inconclusive [cytotoxic, single point] | – |
| CCCCCNC(=O)c1cn(CC)c2cc(N3CCN(C)CC3)c(F)cc2c1=O | active: 16.4 µM | – |
| Cc1cccc(C(=O)NNC(=O)c2cc3cc4ccccc4nc3s2)c1 | inconclusive [cytotoxic, single point] | – |
